Reference: PMC9117659, “Phase transition and remodeling complex assembly are important for SS18-SSX oncogenic activity in synovial sarcomas” (Nature Communications, 2022)
Results are given in words; binding and its absence hold for the method and conditions named. For some of these results: Binding seen in cells or lysates may run through a third protein. Some entries that bind do so weakly or less than the wild type. For some of these results: Where a sequence is shown, tags or fusion partners need not be part of it.

The chains behind the UniProt entries cited, without tags or fusion partners. Where a name states a change or a piece, a line headed by the entry shows the natural chain unless it says otherwise. A line that says so, or that is headed by a name, gives the form on record, which may keep a tag or linker.
GFP-tagged SS18 (GFP-SS18), wild type (Q15532-2, form named): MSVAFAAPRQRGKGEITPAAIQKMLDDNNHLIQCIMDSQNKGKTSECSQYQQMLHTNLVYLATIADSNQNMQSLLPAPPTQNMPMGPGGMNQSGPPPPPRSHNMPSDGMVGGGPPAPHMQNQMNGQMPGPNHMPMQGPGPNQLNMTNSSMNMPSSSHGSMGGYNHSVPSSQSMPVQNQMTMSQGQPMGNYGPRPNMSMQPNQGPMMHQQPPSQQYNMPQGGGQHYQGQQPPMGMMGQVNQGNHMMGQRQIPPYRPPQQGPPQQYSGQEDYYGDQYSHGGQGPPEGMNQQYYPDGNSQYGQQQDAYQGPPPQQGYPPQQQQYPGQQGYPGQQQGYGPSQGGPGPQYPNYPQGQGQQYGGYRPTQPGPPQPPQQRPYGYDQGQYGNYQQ
SS18(3M), purified recombinant (I32E, L54E, A65E) (Q15532-2, form named): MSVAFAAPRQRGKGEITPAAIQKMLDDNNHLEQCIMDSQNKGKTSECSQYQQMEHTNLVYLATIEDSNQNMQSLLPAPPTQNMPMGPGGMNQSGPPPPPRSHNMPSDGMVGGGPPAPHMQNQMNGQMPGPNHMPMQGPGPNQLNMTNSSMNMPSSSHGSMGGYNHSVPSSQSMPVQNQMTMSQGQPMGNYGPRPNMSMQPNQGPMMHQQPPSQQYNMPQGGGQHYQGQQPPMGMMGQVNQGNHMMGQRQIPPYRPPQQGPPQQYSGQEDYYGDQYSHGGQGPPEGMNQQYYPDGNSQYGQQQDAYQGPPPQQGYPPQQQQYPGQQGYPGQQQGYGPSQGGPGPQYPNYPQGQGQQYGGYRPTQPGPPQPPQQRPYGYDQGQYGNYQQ
UniProt Q16384: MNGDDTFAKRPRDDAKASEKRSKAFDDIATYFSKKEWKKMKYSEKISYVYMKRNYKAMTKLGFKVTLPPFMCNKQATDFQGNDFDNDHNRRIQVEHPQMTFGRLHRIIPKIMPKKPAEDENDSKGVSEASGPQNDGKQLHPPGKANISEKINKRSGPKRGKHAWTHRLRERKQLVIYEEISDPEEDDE
UniProt P22082: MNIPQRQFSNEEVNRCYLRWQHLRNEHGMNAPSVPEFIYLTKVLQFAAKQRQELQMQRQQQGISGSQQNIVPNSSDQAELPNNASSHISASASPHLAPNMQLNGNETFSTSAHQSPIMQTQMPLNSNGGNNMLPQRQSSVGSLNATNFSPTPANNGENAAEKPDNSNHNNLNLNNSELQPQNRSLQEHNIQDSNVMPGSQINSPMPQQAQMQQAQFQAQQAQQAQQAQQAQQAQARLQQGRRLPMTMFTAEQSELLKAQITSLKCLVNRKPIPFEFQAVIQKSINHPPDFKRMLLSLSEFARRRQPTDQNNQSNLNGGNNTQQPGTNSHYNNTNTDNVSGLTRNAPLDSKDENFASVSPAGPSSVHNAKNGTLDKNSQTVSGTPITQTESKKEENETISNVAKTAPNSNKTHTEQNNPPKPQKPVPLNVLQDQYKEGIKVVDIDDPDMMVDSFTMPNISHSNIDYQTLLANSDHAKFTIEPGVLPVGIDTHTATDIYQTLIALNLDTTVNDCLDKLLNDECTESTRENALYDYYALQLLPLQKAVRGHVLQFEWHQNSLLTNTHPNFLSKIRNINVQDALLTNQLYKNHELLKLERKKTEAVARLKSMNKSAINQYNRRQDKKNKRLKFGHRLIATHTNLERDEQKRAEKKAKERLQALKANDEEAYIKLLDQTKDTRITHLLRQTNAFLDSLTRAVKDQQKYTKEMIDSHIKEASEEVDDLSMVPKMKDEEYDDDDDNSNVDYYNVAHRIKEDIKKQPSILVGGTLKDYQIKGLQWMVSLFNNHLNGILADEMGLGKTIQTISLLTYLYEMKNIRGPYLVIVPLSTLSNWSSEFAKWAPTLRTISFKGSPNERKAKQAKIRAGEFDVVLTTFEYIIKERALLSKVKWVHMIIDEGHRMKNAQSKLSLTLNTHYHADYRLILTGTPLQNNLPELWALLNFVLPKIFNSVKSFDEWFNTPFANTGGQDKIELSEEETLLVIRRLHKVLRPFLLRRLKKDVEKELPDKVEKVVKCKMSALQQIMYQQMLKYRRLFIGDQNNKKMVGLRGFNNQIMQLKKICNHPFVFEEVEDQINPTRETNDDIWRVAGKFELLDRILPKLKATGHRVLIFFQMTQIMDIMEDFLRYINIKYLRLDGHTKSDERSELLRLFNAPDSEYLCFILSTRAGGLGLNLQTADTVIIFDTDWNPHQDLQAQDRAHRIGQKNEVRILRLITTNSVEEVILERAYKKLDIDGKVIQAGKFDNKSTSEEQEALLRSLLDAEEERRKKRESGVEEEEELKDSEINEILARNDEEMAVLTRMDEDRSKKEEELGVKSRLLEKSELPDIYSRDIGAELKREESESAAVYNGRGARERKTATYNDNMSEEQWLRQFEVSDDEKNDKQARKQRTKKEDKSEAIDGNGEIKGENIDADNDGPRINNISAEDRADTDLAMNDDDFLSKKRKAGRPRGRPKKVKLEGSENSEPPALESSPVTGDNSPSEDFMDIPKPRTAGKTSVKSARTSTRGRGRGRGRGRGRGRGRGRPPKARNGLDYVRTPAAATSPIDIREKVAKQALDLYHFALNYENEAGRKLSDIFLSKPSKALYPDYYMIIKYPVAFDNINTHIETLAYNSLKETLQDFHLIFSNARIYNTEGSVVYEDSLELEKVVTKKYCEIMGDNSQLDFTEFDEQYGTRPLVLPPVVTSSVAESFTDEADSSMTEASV

How the values were obtained:
[1] = biological target: GFP-tagged SS18 (GFP-SS18), wild type (human) (UniProt Q15532); assay: co-IP; HEK293T cells transfected with GFP- and Myc-tagged plasmids, lysate (50 mM Tris-HCl pH 7.4, 150 mM NaCl, 0.5% NP40, 0.5% Triton X-100), agarose-conjugated anti-GFP antibodies 30 min at 4 °C, blot with anti-Myc and anti-GFP
[2] = biological target: T1, GFP-tagged SNF11 (GFP-SNF11) (S. cerevisiae) (UniProt P38956); assay: as above
T1 sequence: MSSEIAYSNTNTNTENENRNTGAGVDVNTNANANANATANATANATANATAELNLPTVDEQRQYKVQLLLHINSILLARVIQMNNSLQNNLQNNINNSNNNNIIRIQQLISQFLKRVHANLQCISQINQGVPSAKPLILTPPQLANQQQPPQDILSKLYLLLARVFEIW

[3] = biological target: SS18(3M)-SSX1, GFP-tagged (I32E, L54E, A65E in SS18) (human) (UniProt Q15532+Q16384); assay: as above
[4] = biological target: SS18-SSX1 oncofusion protein, wild type, GFP-tagged (human) (UniProt Q15532+Q16384); assay: as above
[5] = biological target: SS18(3M), purified recombinant (I32E, L54E, A65E) (human) (UniProt Q15532); assay: co-sedimentation; sedimentation assay of phase-separated SS18 with BRG1^(1-282), each protein 60 µM, 50 mM Tris-HCl pH 7.5, 150 mM NaCl; supernatant and pellet on SDS-PAGE; both purified

GFP-tagged SS18 (GFP-SS18), wild type (from UniProt Q15532-2 1-387)
binding [1]: binds

Myc-BRG1, wild type (from UniProt P51532 1-1647)
binding [1]: binds

Myc-SNF2 Q252A, Q259A (from UniProt P22082 1-1703)
binding [2]: no binding

SS18(3M)-SSX1, GFP-tagged (I32E, L54E, A65E in SS18) (from UniProt Q15532-2 1-379; Q16384 111-188)
binding [3]: binds

Myc-SNF2, wild type (from UniProt P22082 1-1703)
binding [2]: binds

SS18-SSX1 oncofusion protein, wild type, GFP-tagged (from UniProt Q15532-2 1-379; Q16384 111-188)
binding [4]: binds

B1: BRG1^(1-282), N-terminal 282-residue fragment of BRG1 (domain or fragment, human, UniProt P51532 1-282, looked up)
chain: MSTPDPPLGGTPRPGPSPGPGPSPGAMLGPSPGPSPGSAHSMMGPSPGPPSAGHPIPTQGPGGYPQDNMHQMHKPMESMHEKGMSDDPRYNQMKGMGMRSGGHAGMGPPPSPMDQHSQGYPSPLGGSEHASSPVPASGPSSGPQMSSGPGGAPLDGADPQALGQQNRGPTPFNQNQLHQLRAQIMAYKMLARGQPLPDHLQMAVQGKRPMPGMQQQMPTLPPPSVSATGPGPGPGPGPGPGPGPAPPNYSRPHGMGGPNMPPPGPSGVPPGMPGQPPGGPPK
notes: Cloned into a modified pET32a (Trx-his6, N-terminal); the methods describe PreScission cleavage of the Trx-his6 tag in general; Cy3-labelled only for imaging; source: E. coli BL21(DE3) Codon Plus, purified (Ni-NTA, SEC, ion exchange); not shown: Trx, N-terminal, cleaved; His6, N-terminal, cleaved
binding [5]: no binding (tested: 60 µM)
